Measured values published in the supplement of paper PMC4723716.
± gives the uncertainty stated by the source. Over roughly 9,900 compounds, “viability index relative to DMSO control” has its median near 1; the lowest 2% begin near 0.85. The list shows a part of the results.

Tested on: Plasmodium falciparum NF54 stage V gametocytes
Assay: viability index relative to DMSO control (fraction); higher = less gametocyte killing
Conditions: 2.5 µM, incubation time: 72 h
Summary of the method: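 In 1,536-well plates, 10 µl of serum-free medium holding P. falciparum NF54 stage V gametocytes (0.75% gametocytemia, 1.25% hematocrit) received compound at 2.5 µM for 72 hr at 37°C in low oxygen. After one to two hours with 3 µl of 2.5 µM MitoTracker Red CMXRos containing 0.13% saponin, red particles of 20–70 µm2 were counted in a single field per well. Viability index is reported as the particle count over the plate mean of wells treated with solvent only.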

[1] = library set: Broad Institute DOS

Row | Structure (SMILES) | viability index [1] | viability index (library set: Broad Institute Blood Stage)
1 | COc1ccc(NC(=O)N2CC[C@@H]3[C@H]2c2cc(C4=CCCCC4)ccc2N(C)[C@H]3CO)cc1 | 1.05 ± 0.095 | –
2 | COc1ccc2c3c([nH]c2c1)[C@H](CO)N(Cc1ccccn1)C[C@]31CN(C1)C(=O)CC1CC1 | 1.03 ± 0.12 | –
3 | O=S(=O)(c1ccc(F)cc1)N1CCCCN2[C@H](CO)[C@H](c3ccc(-c4cncnc4)cc3)[C@@H]2C1 | 1.11 ± 0.033 | –
4 | O=S(=O)(c1ccccc1)N1CCCCN2[C@H](CO)[C@H](c3ccc(C#CC4CCCC4)cc3)[C@H]2C1 | 0.8253 ± 0.0077 | –
5 | CN(C)C(=O)C[C@@H]1CC[C@@H]2[C@H](COC[C@H](O)CN2S(=O)(=O)c2ccccc2Cl)O1 | 1.1 ± 0.065 | –
6 | COc1ccc2c3c([C@H](CO)N(C[C@]33CN(CC4CC4)C3)C(=O)Nc3c(C)noc3C)n(C)c2c1 | 0.993 ± 0.06 | –
7 | C[C@@H]1CCCCO[C@@H](CN(C)Cc2ccc(C(F)(F)F)cc2)[C@@H](C)CN([C@@H](C)CO)C(=O)c2cc(NC(=O)Nc3cccc4ccccc34)ccc2O1 | 0.983 ± 0.12 | –
8 | O=C(Cc1ccccc1)N1CC[C@@H]2[C@H](CO)Nc3ccc(C4=CCCCC4)cc3[C@@H]21 | 0.915 ± 0.036 | –
9 | CO[C@H]1CN(C)C(=O)c2cc(NS(=O)(=O)c3cccc(Cl)c3)ccc2OC[C@H](C)NC[C@H]1C | 1.01 ± 0.041 | –
10 | O=C(C[C@H]1C=C[C@@H](NC(=O)Nc2ccc3c(c2)OCO3)[C@H](CO)O1)NCCCN1CCOCC1 | 0.919 ± 0.074 | –
11 | CCN(C[C@@H]1N[C@H](CO)[C@H]1c1ccccc1)C(=O)c1ccncc1 | 1.02 ± 0.0022 | –
12 | COCC#Cc1ccc([C@H]2[C@@H](CO)N3CCCCN(Cc4cccnc4)C[C@H]23)cc1 | 1 ± 0.023 | –
13 | C[C@@H]1CN([C@@H](C)CO)C(=O)CCCn2nncc2CO[C@H]1CN(C)C(=O)NC1CCCC1 | 0.9902 ± 0.0089 | –
14 | O=C(C[C@@H]1CC[C@@H]2[C@H](COC[C@H](O)CN2C(=O)c2ccncc2)O1)Nc1ccc(-c2ccccc2)cc1 | 0.9775 ± 0.0015 | –
15 | CN1C(=O)c2cc(NC(=O)c3cnccn3)ccc2OC[C@H]2O[C@@H](CC(=O)N[C@@H]3CCN(Cc4ccccc4)C3)CC[C@H]21 | 0.896 ± 0.1 | –
16 | CCCC#Cc1cnc2c(c1)C(=O)N([C@H](C)CO)C[C@@H](C)[C@@H](CN(C)C(=O)Nc1cc(F)ccc1F)O2 | 1.06 ± 0.092 | –
17 | Cc1noc(C)c1NC(=O)N(C)C[C@@H]1OCc2ccccc2-c2c(n(C)c3ccccc23)C(=O)N([C@@H](C)CO)C[C@@H]1C | 1.02 ± 0.13 | –
18 | COc1cccc(CN2CCCCN3[C@H](CO)[C@@H](c4ccc(C#Cc5cccnc5)cc4)[C@@H]3C2)c1 | – | 0.841 ± 0.06

Row | Structure (SMILES) | viability index [1] | viability index (library set: Broad Institute Blood Stage)
19 | CO[C@H]1CC[C@H]2CCOc3c(C#N)cccc3C(=O)N(C)C[C@@H](c3ccccc3)CC(=O)N(C)C[C@H]1O2 | 1.056 ± 0.0027 | –
20 | CCS(=O)(=O)N1CC(=O)N2[C@H](CO)[C@H](c3ccc(C4=CCCCC4)cc3)[C@@H]2C1 | 1.01 ± 0.11 | –
21 | Cc1ccc(S(=O)(=O)N(C)C[C@@H]2Oc3c(NS(C)(=O)=O)cccc3C(=O)N([C@@H](C)CO)C[C@@H]2C)cc1 | 0.968 ± 0.0089 | –
22 | CN1C(=O)c2cc(NC(=O)c3ccc(F)c(F)c3)ccc2OC[C@@H]2O[C@@H](CC(=O)N3CCCCC3)CC[C@@H]21 | 0.953 ± 0.13 | –
23 | C[C@H]1CN([C@@H](C)CO)C(=O)CCCn2nncc2CO[C@H]1CN(C)C(=O)c1ccc(N2CCN(C)CC2)cc1 | 1.03 ± 0.018 | –
24 | CC(C)(O)C#Cc1cccc(-c2nc(C(=O)N[C@@H]3CCN(Cc4ccccc4)C3)cc3c2[C@@H](CCO)N(S(=O)C(C)(C)C)C3)c1 (stereo not given in full) | 1.08 ± 0.05 | –
25 | CO[C@H]1CN(C)C(=O)c2ccc(NC(=O)Nc3ccccc3Cl)cc2OC[C@H](C)NC[C@@H]1C | 0.989 ± 0.033 | –
26 | CN1C(=O)c2cc(NC(=O)Cc3cccs3)ccc2OC[C@H]2O[C@H](CC(=O)NCCc3ccncc3)CC[C@H]21 | 1.11 ± 0.063 | –
27 | COc1ccccc1C#Cc1ccc([C@@H]2[C@@H](C#N)N(C(=O)C3CCC3)[C@@H]2CO)cc1 | 1.15 ± 0.082 | –
28 | COCC(=O)N1C[C@]2(CCN(Cc3cccnc3)CC2)c2c([C@H]1CO)n(C)c1cc(OC)ccc21 | 0.954 ± 0.033 | –
29 | CO[C@@H]1CN(C)C(=O)c2cc(NS(=O)(=O)CC(F)(F)F)ccc2OC[C@H](C)NC[C@@H]1C | 1.05 ± 0.059 | –
30 | O=C(Cc1ccccn1)N[C@H]1CC[C@@H](CCNS(=O)(=O)c2cccc(F)c2)O[C@H]1CO | 0.959 ± 0.081 | –
31 | CN(C)C(=O)C[C@@H]1CC[C@@H]2[C@H](COc3ccc(NC(=O)C4CCCCC4)cc3C(=O)N2C)O1 | 1.05 ± 0.041 | –
32 | CCC(=O)Nc1ccc2c(c1)C(=O)N(C)C[C@@H](OC)[C@H](C)CN(C(=O)Cc1cccnc1)[C@H](C)CO2 | 1.02 ± 0.068 | –
33 | O=C(C[C@@H]1CC[C@H]2[C@@H](COC[C@H](O)CN2C(=O)c2ccncc2)O1)NCc1cc(F)cc(F)c1 | 1.07 ± 0.046 | –
34 | Cc1noc(C)c1NC(=O)Nc1ccc2c(c1)C(=O)N([C@H](C)CO)C[C@@H](C)[C@H](CN(C)S(=O)(=O)c1ccc(F)cc1)O2 | 1.04 ± 0.08 | –
35 | CO[C@H]1CN(C)C(=O)c2ccc(NC(=O)C3CC3)cc2OC[C@H](C)N(C(C)=O)C[C@H]1C | 1.05 ± 0.11 | –
